The whole screen tested about 310,000 compounds, of which about 14,000 (4.5%) showed an effect of 50% or more. Effects have a minus sign here. Some of the results follow.
Target: human ether-à-go-go-related gene (hERG) potassium channel (human, UniProt Q12809)
Assay: primary screen, population patch clamp on CHO cells stably expressing hERG
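Note: peak tail current of the secondary pulse compared with the same well before compound.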

Chain of human ether-à-go-go-related gene (hERG) potassium channel (Q12809 whole entry, looked up): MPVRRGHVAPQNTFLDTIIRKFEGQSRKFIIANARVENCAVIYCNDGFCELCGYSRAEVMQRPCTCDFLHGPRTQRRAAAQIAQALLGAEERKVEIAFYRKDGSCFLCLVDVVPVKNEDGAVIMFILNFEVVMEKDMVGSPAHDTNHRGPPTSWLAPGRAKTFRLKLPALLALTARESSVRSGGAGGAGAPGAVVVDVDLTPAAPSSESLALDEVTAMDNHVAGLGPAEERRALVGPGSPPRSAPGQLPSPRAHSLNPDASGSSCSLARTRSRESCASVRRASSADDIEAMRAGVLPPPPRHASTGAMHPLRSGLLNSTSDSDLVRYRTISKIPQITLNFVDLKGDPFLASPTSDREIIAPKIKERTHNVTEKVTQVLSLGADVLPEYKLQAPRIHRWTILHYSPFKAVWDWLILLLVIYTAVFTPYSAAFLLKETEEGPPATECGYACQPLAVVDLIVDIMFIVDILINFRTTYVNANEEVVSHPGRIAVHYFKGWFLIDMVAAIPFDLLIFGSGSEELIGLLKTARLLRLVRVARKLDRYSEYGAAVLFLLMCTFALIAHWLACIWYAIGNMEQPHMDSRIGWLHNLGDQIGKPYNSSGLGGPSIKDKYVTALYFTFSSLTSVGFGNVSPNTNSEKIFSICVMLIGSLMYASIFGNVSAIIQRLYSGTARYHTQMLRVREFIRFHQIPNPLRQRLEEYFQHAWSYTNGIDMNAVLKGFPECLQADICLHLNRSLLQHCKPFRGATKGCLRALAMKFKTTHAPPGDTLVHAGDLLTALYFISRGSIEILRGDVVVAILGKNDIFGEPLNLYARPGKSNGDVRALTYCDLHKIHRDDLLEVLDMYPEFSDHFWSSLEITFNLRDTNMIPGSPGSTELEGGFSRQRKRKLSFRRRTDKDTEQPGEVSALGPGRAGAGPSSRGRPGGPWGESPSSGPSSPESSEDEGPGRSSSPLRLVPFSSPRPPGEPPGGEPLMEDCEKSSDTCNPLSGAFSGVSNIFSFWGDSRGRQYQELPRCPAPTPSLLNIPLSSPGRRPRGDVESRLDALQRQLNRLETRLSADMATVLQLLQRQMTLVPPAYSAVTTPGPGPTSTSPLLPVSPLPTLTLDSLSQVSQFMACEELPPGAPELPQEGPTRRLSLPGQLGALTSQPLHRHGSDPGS

Row | SMILES | hERG current change (%, negative = inhibition) at 10uM [%]
1 | CCOC(=O)CC(NC(=O)c1cc2cccc(OC)c2oc1=O)c1ccc(OC)cc1 (stereo not drawn) | -5.76
2 | NS(=O)(=O)c1ccc(CNC(=S)NCc2ccc(F)cc2)cc1 | 9.61
3 | CC(C)c1cc(=O)oc2c3c4c(cc12)CCCN4CCC3 | -18
4 | Cl.OC(COCc1ccccc1)CN1CCCCC1 (stereo not drawn) | 6.73
5 | Cc1nc2ccc(N=NN(C)C)cc2[nH]1 | 10.4
6 | O=C(CCn1c(=O)[nH]c2ccccc2c1=O)N1CCN(c2ccc(Cl)cc2)CC1 | -13.1
7 | COc1cc(C(=O)NCC(=O)OC(C)C(=O)Nc2ncc(Cl)cc2Cl)cc(OC)c1OC (stereo not drawn) | 8.55
8 | C=CCn1c(SCC(=O)c2ccc(OC)cc2)nnc1-c1ccc2c(c1)OCO2 | -16.9
9 | O=C(O)c1cccc(C(=O)O)c1 | 6.31
10 | CC(=O)N1CCC(C(=O)OCc2ccc(Cl)cc2)(c2ccccc2)CC1 | -10.1
11 | CN1CCN(C(=O)CSc2cc(=O)n(C)c3ccccc23)CC1 | 8.32
12 | O=C(NC1CCCCC1)[C@@H]1CSC2c3ccccc3C(=O)N21 (stereo partly drawn) | 14.2
13 | CCC1(c2ccccc2)C(=O)N(C)C(=O)N(C)C1=O | 10.6
14 | CC(C)c1ccc(/C=N/NC(=O)c2ccccc2Cl)cc1 | 6.1
15 | O=C(O)c1ccc(N2Cc3ccccc3C2)cc1O | 4.44
16 | COc1ccccc1NC(=O)c1cn(C)c(=O)c2cc(OC)c(OC)cc12 | 4.1
17 | CC(C)(C)c1ccc(S(=O)(=O)CCc2ccccn2)cc1 | -4.21
18 | N#CCCN(C(=O)COC(=O)CCc1nc2ccccc2c(=O)[nH]1)c1ccccc1F | -3.34
19 | O=C(COc1coc(CN2CCN(c3ccccc3)CC2)cc1=O)N1CCc2ccccc21 | -18.2

Row | SMILES | hERG current change (%, negative = inhibition) at 10uM [%]
20 | CCCN(CC1CC1)C(=O)COC(=O)c1oc2c(F)cccc2c1C | -52.8
21 | C/C(=N/NC(=O)C1CC1(c1ccccc1)c1ccccc1)c1cccs1 (stereo not drawn) | 15.5
22 | O=C(Nc1cccc(S(=O)(=O)N2CCCCC2)c1)c1ccccn1 | -9.89
23 | O=C(NCCCN1CCCC1=O)c1cc(COc2ccc(F)cc2F)on1 | -8.12
24 | N#Cc1c(NCCO)nc(NCc2ccccc2)c2c1CCN(Cc1ccccc1)C2 | -27.1
25 | CC(C)n1cc(C(=O)c2ccccc2O)cc(C#N)c1=O | 18.1
26 | COc1ccc(-n2c(=S)[nH]c3cc(C(=O)Nc4cc(OC)c(OC)c(OC)c4)ccc3c2=O)c(OC)c1 | 21.7
27 | O=C(NCCc1ccccc1)C1CC1 | 24.2
28 | Cc1ccccc1CNC(=O)C(=O)NCC1OCCCN1S(=O)(=O)c1ccc(F)cc1C (stereo not drawn) | 7.36
29 | Cc1ccc(CNC(=O)C2CCN(S(=O)(=O)c3c(C)noc3/C=C/c3ccco3)CC2)cc1 | -19.7
30 | CCOC(=O)N1CCN(Cc2nc(CC3CC3)no2)CC1 | 7.64
31 | O=C(Nc1ccc(O)c2c(=O)cc(-c3ccccc3Cl)oc12)c1ccc(Cl)c(Cl)c1 | 27.7
32 | O=C(NCc1cn2ccsc2n1)c1cccs1 | 2.47
33 | C=CCn1c(SCc2nc3sc(C(=O)O)c(C)c3c(=O)[nH]2)nnc1-c1ccc(F)cc1 | 11.1
34 | O=C(CC1S/C(=N\S(=O)(=O)c2ccccc2)N(c2ccccc2)C1=O)Nc1ccc(F)cc1 (stereo not drawn) | -3.33
35 | CCOc1ccccc1NC(=O)COC(=O)C(CC)c1ccccc1 (stereo not drawn) | -21.3
36 | Cc1ccc(N2CN(S(=O)(=O)c3cccc([N+](=O)[O-])c3)c3nc4ccccc4nc32)cc1 | 1.25
37 | CNC(=O)/C(C#N)=C/c1cc(C)n(-c2ccc(N3CCOCC3)cc2)c1C | 17
38 | O=C(OC(c1ccc(NS(=O)(=O)c2ccccc2)cc1)(C(F)(F)F)C(F)(F)F)c1ccccc1 | -6.82

Row | SMILES | hERG current change (%, negative = inhibition) at 10uM [%]
39 | CCn1c2ccccc2c2cc(NC(=O)CSc3nnc(-c4cccc(C)c4)o3)ccc21 | 9.86
40 | O=C(Nc1cccc(Br)c1)c1cccc(OC(=S)N2CCOCC2)c1 | -14.5
41 | CCCC(=O)C1C(=O)CC(CC(C)SCC)CC1=O (stereo not drawn) | -1.26
42 | Cc1ccc(NC(=O)CCCNC(=O)c2ccc(Cl)cc2)c(O)c1 | 0.253
43 | O=C(O)COc1ccc2occ(C(=O)c3ccccc3)c2c1 | -8.43
44 | Cc1n[nH]c(=O)c2c(NC(=O)COC(=O)/C=C/c3cccc(C(F)(F)F)c3)oc(C)c12 | -16.7
45 | CCCCN(C)CCNC(=O)C(NC(=O)C1CCC(C)CC1)C(C)C (stereo not drawn) | 2.79
46 | NC(N)=NC(N)=Nc1ccc(O)cc1 | 20.8
47 | CC(CCc1ccco1)N(C)S(=O)(=O)c1csc(C(N)=O)c1 (stereo not drawn) | -17.1
48 | CNC(=S)N/N=C/c1ccc(-c2ccc(Cl)c([N+](=O)[O-])c2)o1 | 12
49 | Cc1ccc(-n2c(C)nnc2SCC(=O)Nc2ccccc2)cc1 | -37.5
50 | CCn1nnnc1NCc1ccc(OCc2c(F)cccc2Cl)c(OC)c1 | 18.2
51 | O=C(NCCCCNC(=O)C(F)(F)F)C(F)(F)F | 3.9
52 | O=C(NC(=S)N(CC1CCC1)CC1CCCO1)c1cccc([N+](=O)[O-])c1 (stereo not drawn) | -21.1
53 | CC1(C)C(=O)NC(=O)N1Cc1ccccc1 | 7.33
54 | CCCCC1CCc2[nH]nc(C(=O)O)c2C1 (stereo not drawn) | 13.1
55 | CN(Cc1cnn(Cc2ccccc2)c1)C(=O)CN=C1NS(=O)(=O)c2ccccc21 | -3.51
56 | CC(=O)c1ccc(NC(=O)c2cccc(S(=O)(=O)N3CCN(C)CC3)c2)cc1 | -3.66
57 | CCOC(=O)c1cnc2c(C)cccc2c1NCCc1ccc(OC)c(OC)c1 | -66.9
